In PubChem BioAssay AID1508624 (National Center for Advancing Translational Sciences (NCATS), 2021):
In all, about 48,000 compounds went through this assay and about 120 (0.25%) were called active. Another 4% or so got no clear call; they are omitted. Calls follow the shape of the dose curve; as a rule, active = well fitted activation curve with a large enough effect; inconclusive = small, poorly fitted or top-dose-only effect, or another doubt; inactive = no such curve, though single readings can be large or run the other way. This is one part of the list.

Experiment: Primary qHTS for Identification of Small Molecule Activators of Huntingtin-Antisense Promoter Activity; also: nearly all actives have a fitted effect of over 55% in size
Conditions: HEK293 HTT-AS promoter firefly luciferase reporter (activity 0% = vehicle and -100% = no light), 24 h; series mostly up to 57.5 µM; activity change, positive = activation: at the top concentration
In short: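 Quantitative HTS used concentration series of up to 57.5 uM final on HEK293 luciferase reporter cells, 24 h at 37 degrees C. Readout was Dual-Glo firefly luminescence.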

Activity change, positive = activation, inactive:
COc1ccccc1NC(=O)Cn1c(=O)n(-c2cccc(C(C)=O)c2)c(=O)c2c3c(sc21)CN(C(C)=O)CC3 -7.41%, CCN1CCN(C(=O)c2cnn(-c3ccc(F)cc3)c2-n2cccc2)CC1 -8.39%, Cc1ccc(C2C=C(c3ccc(Cl)cc3)Nc3nc(NS(=O)(=O)c4ccccc4)nn32)cc1 (stereo not given) -16.6%, O=C(CCC1N=C2c3ccccc3N=C(SCC(=O)Nc3ccccc3F)N2C1=O)NCc1ccccc1 (stereo not given) -9.24%, Cc1ccc(CNC(=O)CCCCn2c(=O)c3ccccc3n(Cc3c(C)cc(C)cc3C)c2=O)cc1 -8.59%, COc1cccc(NC(=O)CSC2=Nc3ccccc3C3=NC(CC(=O)NCCc4ccccc4)C(=O)N23)c1 (stereo not given) -25.6%, CCOC(=O)c1ccccc1NC(=O)Cn1c(=O)n(Cc2nc(-c3ccccc3)no2)c(=O)c2ccccc21 -10.3%, COc1ccccc1N1CCN(C(=O)Cn2ncc3c([nH]c4ccccc43)c2=O)CC1 -8.59%, COc1ccc(OC)c(S(=O)(=O)N2CCC(c3ccncc3)CC2)c1 -30.6%, CCOCCCNC(=O)NC(C)c1c(-n2cccc2)sc2c1CCN(CC)C2 (stereo not given) -8.69%, COc1ccc(S(=O)(=O)Nc2cccnc2Nc2ccc(O)cc2)cc1 -37.1%, O=C(CCc1nc(CN2CCN(S(=O)(=O)c3ccc(F)cc3)CC2)no1)N1CCCCC1 -8.94%, CCc1ccc(-n2c(SCc3ccccc3F)nc3[nH]ncc3c2=O)cc1 -36.1%, O=C(c1ccc2c(c1)N(Cc1ccccc1F)C(=O)c1ccccc1S2(=O)=O)N1CCCCC1 -10%, COc1cccc(NC(=O)CSC2=Nc3ccccc3N=C(c3ccc(F)cc3)C2)c1 -29.9%, C[C@]12C[C@H](O)[C@H]3[C@@H](CCC4=CC(=O)CC[C@@]43C)[C@@H]1CC[C@@H]2C(=O)CO -14.3%, CCc1ccc(C(=O)c2cn(CC(=O)NCCc3ccc(OC)c(OC)c3)c3nc(C)ccc3c2=O)cc1 -21.9%, CCOC(=O)C1CCCN(S(=O)(=O)c2ccc3c(c2)CCCN3C(C)=O)C1 (stereo not given) -33.3%, COc1ccc(CCNC(=O)c2cc3c(-c4ccccc4F)nn(C)c3s2)c(OC)c1 -30.1%, O=C(Nc1ccc(Br)cc1F)c1cc(S(=O)(=O)NCc2ccc(F)cc2)ccc1F -23.9%, COc1ccc(NC(=O)c2cc3c(s2)-c2c(C)cccc2OC3)c(OC)c1 -10.2%, CCCCNc1nc(Oc2ccc(=O)[nH]n2)nc(N(C)C)n1 0.776%, C=C(C)Cn1c(=O)c2c(nc3n2CCN3c2ccc(CC)cc2)n(C)c1=O -0.19%, CCc1nn(CC(=O)NCCCN(CC)CC)c(=O)c2cc3sc(C)cc3n12 2.92%, CSc1ncc(C(=O)Nc2ccccc2C(=O)c2ccccc2)c(C(F)(F)F)n1 -29.5%, Fc1ccc(-n2cc(-c3ccccc3)c3c(NC4CCCCC4)ncnc32)cc1 -22.1%, CCOC(=O)c1cccc(NC(=O)c2cc3c(=O)n(Cc4ccccc4)ccc3nc2C)c1 -28%, CCC(=O)N1CCc2cc(S(=O)(=O)NC(Cc3ccccc3)C(=O)Nc3ccc(C)cc3)ccc21 (stereo not given) 3.18%, Cc1ccc(NC(=O)c2sc3nc(-c4cc5ccccc5oc4=O)[nH]c(=O)c3c2C)c(C)c1 -0.951%, O=C(CC1Sc2ccc(C(F)(F)F)cc2NC1=O)Nc1ccc(Cl)c(C(F)(F)F)c1 (stereo not given) -23.4%, CCOc1ccc(-n2c(SCc3ccc(C(=O)OC)o3)nc3c([nH]c4ccccc43)c2=O)cc1 -21.8%, CCOc1ccc(-c2cc(OC(=O)c3ccc(F)cc3)c3c(C)oc(C)c3c(=O)c2)cc1 -25.3%, COc1cc(C(=O)Nc2cc(C)ccc2OCc2cc(=O)n3c(C)csc3n2)cc(OC)c1OC -1.68%, CCN1C(=O)c2ccccc2Sc2ccc(NC(C)=O)cc21 -0.139%, CC1=C(C(=O)OC2CCCCCC2)C(c2c(F)cccc2Cl)CC(=O)N1 (stereo not given) -46%, CCN(CCCNC(=O)c1c(C)oc2ncn(CC(C)C)c(=O)c12)Cc1ccccc1 3.55%, COc1ccc(N(Cc2cccs2)C(=O)COc2cccc(Cl)c2)cc1 -32.7%, Cn1c(=O)n(-c2ccc(F)c(Cl)c2)c(=O)c2sc3ccccc3c21 -13.1%, O=C1CC2(CCCC2)CC(=O)N1 -0.0864%, CCOC(=O)c1c(Nc2ccc(C)cc2)nnc(-c2ccccc2)c1-c1ccccc1 -36.3%, COc1ccc(NCc2cc3cc4c(cc3n(CC(=O)Nc3ccc(F)cc3F)c2=O)OCO4)cc1 -26.5%, CCc1ccccc1NS(=O)(=O)c1ccc(OC)c2ncccc12 -33.5%, CCC1CCCCN1C(=O)c1ccc2c(c1)N(Cc1cccc(Cl)c1)C(=O)c1ccccc1S2(=O)=O (stereo not given) -33.6%, CCN(CC)c1ccc(C(=C2C=CC(=[N+](CC)CC)C=C2)c2cc(S(=O)(=O)O)ccc2S(=O)(=O)[O-])cc1 -55.8%, CCOC(=O)c1cnc2c(Cl)cccc2c1NCCN1CCOCC1 -9.2%, COC(=O)CCSc1nc2sc3c(c2c(=O)n1Cc1ccccc1)CCC(C(C)(C)C)C3 (stereo not given) -4.93%, Cc1ccc(-n2ncc3c(NCCCN4CCOCC4)ncnc32)cc1 5.44%, O=C(CCC1N=C2c3ccccc3N=C(SCc3ccccc3F)N2C1=O)NC1CCCCC1 (stereo not given) -43.9%, COc1cccc(-n2c(=O)c3c(C)c(C(=O)N(C)C)sc3n(Cc3ccc(F)cc3Cl)c2=O)c1 0.666%, CCn1c2ccccc2c2nnc(N3CCN(c4cc(C)ccc4C)CC3)nc21 -1.51%, Fc1ccc(-c2nc(Nc3cccc(Cl)c3)nc3c2COc2ccccc2-3)cc1 -31.4%, O=C(O)c1ccc2c(c1)nc(Nc1cccc(Cl)c1)c1ccncc12 -11.3%, COc1ccc(N2CCN(S(=O)(=O)c3ccc4c(c3)CC(C)N4C(C)=O)CC2)cc1 (stereo not given) -94.3%, COc1ccc(NC(=O)C2Cc3ccccc3N2C(=O)c2ccccc2)c(OC)c1 (stereo not given) -21.5%, CCOc1ccccc1NC(=O)c1cc2c(Cl)nc3ccccc3c2s1 -11%, CC(C)CCNC(=O)c1cccc(Nc2nc3ccccc3n3nnnc23)c1 -40.8%, COc1ccc(Cl)cc1NC(=O)c1ccc2nc(Cc3ccccc3)oc2c1 -18.8%, Cc1ccc(NC(=O)c2cc(S(=O)(=O)NCCC3=CCCCC3)ccc2F)cc1F -89.8%, CCCC(=O)Nc1cc(C)c(O)c(-c2nc3ncccc3o2)c1 -7.53%, Cc1cc(NC(=O)c2ccc(Br)o2)cc(-c2nc3ccccc3o2)c1O 5.38%
